Data taken from article PMC8190136, “Structural insight on assembly-line catalysis in terpene biosynthesis” (Nature Communications, 2021).

Columns and labels:
[1] = system: CC(C)=CCOP(=O)(O)OP(=O)(O)O; test: purified protein; conditions: prenyltransferase reaction, co-substrate 600 µM IPP, sigmoidal, Hill n = 2.0 ± 0.3, 1.79 µM PaFS, 50 mM Tris-HCl pH 7.5, 1 mM MgCl2, 21°C
[2] = system: CC(C)=CCC/C(C)=C/CC/C(C)=C/CC/C(C)=C/COP(=O)(O)OP(=O)(O)O; test: purified protein; conditions: cyclase reaction, sigmoidal with substrate inhibition, Hill n = 3.0 ± 0.4, fit to [GGPP] ≤ 80 µM, 50 nM PaFS, 50 mM Tris-HCl pH 7.5, 1 mM MgCl2, 21°C
[3] = target: fusicoccadiene synthase (PaFS), full-length wild-type (Diaporthe amygdali, UniProt A2PZA5); conditions: substrate inhibition by GGPP in cyclase reaction; fit to [GGPP] ≤ 80 µM; Hill n = 3.0; 50 nM PaFS, 50 mM Tris-HCl pH 7.5, 1 mM MgCl2, 21°C
fusicoccadiene synthase (PaFS), full-length wild-type, sequence (A2PZA5 whole entry, looked up): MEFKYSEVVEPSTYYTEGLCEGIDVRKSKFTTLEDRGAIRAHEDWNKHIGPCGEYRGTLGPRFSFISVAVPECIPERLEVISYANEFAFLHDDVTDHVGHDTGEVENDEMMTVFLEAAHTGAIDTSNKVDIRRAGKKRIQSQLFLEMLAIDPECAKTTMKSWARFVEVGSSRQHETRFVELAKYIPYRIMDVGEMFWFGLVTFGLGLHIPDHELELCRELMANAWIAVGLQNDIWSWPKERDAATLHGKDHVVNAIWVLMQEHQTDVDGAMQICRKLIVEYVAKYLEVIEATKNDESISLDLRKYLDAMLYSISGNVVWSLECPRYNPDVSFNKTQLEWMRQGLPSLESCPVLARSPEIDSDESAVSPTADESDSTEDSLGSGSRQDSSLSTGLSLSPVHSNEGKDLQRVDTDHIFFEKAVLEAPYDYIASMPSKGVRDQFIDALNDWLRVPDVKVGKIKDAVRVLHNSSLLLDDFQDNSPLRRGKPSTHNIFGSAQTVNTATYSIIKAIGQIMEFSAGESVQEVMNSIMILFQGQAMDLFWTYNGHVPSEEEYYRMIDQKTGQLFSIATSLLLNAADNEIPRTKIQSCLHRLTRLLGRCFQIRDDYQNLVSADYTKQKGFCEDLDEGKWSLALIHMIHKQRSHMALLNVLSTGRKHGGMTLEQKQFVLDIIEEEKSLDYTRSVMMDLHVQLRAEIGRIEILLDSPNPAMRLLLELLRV

Molecule	Km [1] [µM]	kcat [1]	Km [2] [µM]	kcat [2] [s⁻¹]	Ki [3] [µM]
fusicoccadiene synthase (PaFS), full-length wild-type (Diaporthe amygdali)	139 ± 16	1.01 ± 0.09 × 10^-3 s^-1	6.4 ± 0.4	0.059 ± 0.004	–
CC(C)=CCC/C(C)=C/CC/C(C)=C/CC/C(C)=C/COP(=O)(O)OP(=O)(O)O [GGPP]	–	–	–	–	290 ± 60
